Article PMC6602471
Some of the results follow. At the low end of the ranking, values are background and their order means little.

target: T1, ETS1 (UniProt P14921); experiment: custom PBM; details: custom protein-binding microarray; buffer, salt, pH and temperature not stated; high values mean tight binding; double strand, one strand shown
T1 sequence: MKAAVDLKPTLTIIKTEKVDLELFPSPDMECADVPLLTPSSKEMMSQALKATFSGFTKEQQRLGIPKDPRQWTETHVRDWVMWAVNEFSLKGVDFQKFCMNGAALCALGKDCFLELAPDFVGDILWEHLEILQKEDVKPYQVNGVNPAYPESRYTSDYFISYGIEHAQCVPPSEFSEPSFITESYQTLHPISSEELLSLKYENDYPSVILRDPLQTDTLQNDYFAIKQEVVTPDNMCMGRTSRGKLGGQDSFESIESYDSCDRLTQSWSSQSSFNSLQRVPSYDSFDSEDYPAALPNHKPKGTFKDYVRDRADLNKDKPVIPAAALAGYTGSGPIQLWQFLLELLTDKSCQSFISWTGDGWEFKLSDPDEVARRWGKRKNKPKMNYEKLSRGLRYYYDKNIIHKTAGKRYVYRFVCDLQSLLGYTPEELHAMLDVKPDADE

Row | Sequence | binding signal (log fluorescence intensity)
1 | GACTAATTTCTGCCCTTATTCGCACGTGCCATAACAGTCTTGATTCGCTTGACGCTGCTG | 8.22
2 | CACAATTTTTACAGTACTGTAGCACGCGTAACTCCTGTCTTGATTCGCTTGACGCTGCTG | 8.28
3 | CACAATTTTTACAGTAATGTAGCATGCGTAACTCCTGTCTTGATTCGCTTGACGCTGCTG | 8.22
4 | GATTAATTTCTGCCCTTATTCGCACGTGCCACAACAGTCTTGATTCGCTTGACGCTGCTG | 8.16
5 | CAGCATAGGACTTCTTCCCTGAAGTAATTGATAACCGTCTTGATTCGCTTGACGCTGCTG | 8.12
6 | TGTGGGGTAAGGGAATGTAGATCACGTGAATGAAAAGTCTTGATTCGCTTGACGCTGCTG | 8.1
7 | CACAATTTTTACAGTAATGTAGCACGCGTAACTCCGGTCTTGATTCGCTTGACGCTGCTG | 8.22
8 | TGTCGGGTAAGAGAATGTAGATCACGTGAATGAAAAGTCTTGATTCGCTTGACGCTGCTG | 7.97
9 | CAGCATGGGACTTCTTCCCTGAAGCAATTGATAACCGTCTTGATTCGCTTGACGCTGCTG | 8.29
10 | TGTCGGGTAAGGGAATGTAGAGCACGTGAATGAAAAGTCTTGATTCGCTTGACGCTGCTG | 8.04
11 | TGTCGGGTAAGGGAATGTAGATCACGAGAATGAAAAGTCTTGATTCGCTTGACGCTGCTG | 8.19
12 | TGTCGGTTAAGGGAATGTAGATCACGTGAATGAAAAGTCTTGATTCGCTTGACGCTGCTG | 8.38
13 | GATTAATTTCTGCCCTTATTCGCACGTGCCAAAACAGTCTTGATTCGCTTGACGCTGCTG | 8.27
14 | GGAAAAAGGCCGAGGGTAACACCGGAAGTGGGCTTAGTCTTGATTCGCTTGACGCTGCTG | 12
15 | GATTAATTTCTGCCCTTATTCCCACGTGCCATAACAGTCTTGATTCGCTTGACGCTGCTG | 8.23
16 | TACTGATTTATATATGCGAATGCACATGAATAGACCGTCTTGATTCGCTTGACGCTGCTG | 8.08
17 | TGTCGGGAAAGGGAATGTAGATCACGTGAATGAAAAGTCTTGATTCGCTTGACGCTGCTG | 8.16
18 | GGAAAAAGGCCCACGGTAACACCGGAAGTGGGCTTAGTCTTGATTCGCTTGACGCTGCTG | 12.2
19 | TCAGGCTACCAGCTCCACCCACTTCAGGCCTTGTAGGTCTTGATTCGCTTGACGCTGCTG | 8.33
20 | CACAATTTTTACAGTAATGTAGCACGCGTAGCTCCTGTCTTGATTCGCTTGACGCTGCTG | 8.34
21 | GGGAAGTGTCGTAAACGTCGGATATCCGGTTCTTCTGTCTTGATTCGCTTGACGCTGCTG | 11.9

Row | Sequence | binding signal (log fluorescence intensity)
22 | TAAAGGGAAGACGGTTGTGGTCGTTCCGGGTATTAAGTCTTGATTCGCTTGACGCTGCTG | 8.44
23 | CAGCATAGGACTTCTTCCCTGAAGCAATTGATGACCGTCTTGATTCGCTTGACGCTGCTG | 8.27
24 | CAGCATAGAACTTCTTCCCTGAAGCAATTGATAACCGTCTTGATTCGCTTGACGCTGCTG | 8.08
25 | TAAAGGGAAGACGGTTGTGGTAGTTCCGGGTATGAAGTCTTGATTCGCTTGACGCTGCTG | 8.65
26 | GCTGCTCCGGTGCATACCCCACCGGATGTGACCCCGGTCTTGATTCGCTTGACGCTGCTG | 11.4
27 | TGTCGAGTAAGGGAATGTAGATCACGTGAATGAAAAGTCTTGATTCGCTTGACGCTGCTG | 8.16
28 | GGAAAAAGGCCCAGGTTAACACCGGAAGTGGGCTTAGTCTTGATTCGCTTGACGCTGCTG | 12
29 | TCCGGCTACCAGCTCCGCCCACTTCAGGCCTTGTAGGTCTTGATTCGCTTGACGCTGCTG | 8.21
30 | CACAATTTTTACAGTAATGTAGAACGCGTAACTCCTGTCTTGATTCGCTTGACGCTGCTG | 8.38
31 | GTGTCTAGGATCCCATCCAACACACGTGTTAAAATGGTCTTGATTCGCTTGACGCTGCTG | 8.15
32 | GCTGCAGCGGTGCATACCCCACCGGATGTGACCCCGGTCTTGATTCGCTTGACGCTGCTG | 10.4
33 | GCTGCTGCGGTGCATACACCACCGGATGTGACCCCGGTCTTGATTCGCTTGACGCTGCTG | 10.2
34 | TCCGGCTACCAGCTCCACCCTCTTCAGGCCTTGTAGGTCTTGATTCGCTTGACGCTGCTG | 8.28
35 | GCTGCTGCGGTGAATACCCCACCGGATGTGACCCCGGTCTTGATTCGCTTGACGCTGCTG | 10.3
36 | GGAAAAAGGCCCAGGGTAACACCGGAAATGGGCTTAGTCTTGATTCGCTTGACGCTGCTG | 11.5
37 | TCCGGCTTCCAGCTCCACCCACTTCAGGCCTTGTAGGTCTTGATTCGCTTGACGCTGCTG | 8.68
38 | CAACATAGGACTTCTTCCCTGAAGCAATTGATAACCGTCTTGATTCGCTTGACGCTGCTG | 8.25
39 | TCCGGCTACCAGCTCCACCCACTTCAGGCGTTGTAGGTCTTGATTCGCTTGACGCTGCTG | 8.21
40 | GCAAAAAGGCCCAGGGTAACACCGGAAGTGGGCTTAGTCTTGATTCGCTTGACGCTGCTG | 11.9
41 | GTGTATAGGATCCCATCCAACACACGTGTTAAAATCGTCTTGATTCGCTTGACGCTGCTG | 8.04
42 | CAGGATAGGACTTCTTCCCTGAAGCAATTGATAACCGTCTTGATTCGCTTGACGCTGCTG | 8.23

Row | Sequence | binding signal (log fluorescence intensity)
43 | GATTAATTTCTGCCCTTATTCGCAAGTGCCATAACAGTCTTGATTCGCTTGACGCTGCTG | 8.32
44 | AATTAATTTCTGCCCTTATTCGCACGTGCCATAACAGTCTTGATTCGCTTGACGCTGCTG | 8.33
45 | TCCGGTTACCAGCTCCACCCACTTCAGGCCTTGTAGGTCTTGATTCGCTTGACGCTGCTG | 8.2
46 | TACTGACTTATATATGCGAATGCACGTGAATAGACCGTCTTGATTCGCTTGACGCTGCTG | 8.14
47 | CAGCATAGGACTTCTTCCCTGAAGCAGTTGATAACCGTCTTGATTCGCTTGACGCTGCTG | 8.35
48 | TAATGGGAAGACGGTTGTGGTAGTTCCGGGTATTAAGTCTTGATTCGCTTGACGCTGCTG | 8.6
49 | TACTGACTTATATATGCGAATGCACATGAATGGACCGTCTTGATTCGCTTGACGCTGCTG | 8.43
50 | CAGCATAGGACTTCTTCCCTGAAGCAATTGAAAACCGTCTTGATTCGCTTGACGCTGCTG | 8.4
51 | CTGGCACTTGACCCAACTCTGCCACGTGGGTCGTTTGTCTTGATTCGCTTGACGCTGCTG | 8.08
52 | TCCGGCTACCAGCTTCACCCACTTCAGGCCTTGTAGGTCTTGATTCGCTTGACGCTGCTG | 8.4
53 | CACAATTTTTACAGTAATCTAGCACGCGTAACTCCTGTCTTGATTCGCTTGACGCTGCTG | 8.18
54 | CTGGGACTTGACCCAACTCTGCCACATGGGTCGTTTGTCTTGATTCGCTTGACGCTGCTG | 8.32
55 | GATTAATTTCTGTCCTTATTCGCACGTGCCATAACAGTCTTGATTCGCTTGACGCTGCTG | 8.22
56 | CACAATTTTTACAGTAATGTAGCACGCGCAACTCCTGTCTTGATTCGCTTGACGCTGCTG | 7.97
57 | TAAAGGGAAGACGGTTGTGGTAGTTCCGCGTATTAAGTCTTGATTCGCTTGACGCTGCTG | 8.3
58 | CACAATTTTTACAGTAATGTAGCACGCGTACCTCCTGTCTTGATTCGCTTGACGCTGCTG | 8.29
59 | GGAAAAAGGCCCAGGGTAACACCGGAGGTGGGCTTAGTCTTGATTCGCTTGACGCTGCTG | 8.25
60 | CGGAAGTGTCGTAAACGTAGGATATCCGGTTCTTCTGTCTTGATTCGCTTGACGCTGCTG | 11.7
61 | CAGCATAGGACTTCTTCCCTGAAACAATTGATAACCGTCTTGATTCGCTTGACGCTGCTG | 8.28
62 | TTGTATAGGATCCCATCCAACACACGTGTTAAAATGGTCTTGATTCGCTTGACGCTGCTG | 8.32
63 | GGAAAAAGGCCCGGGGTAACACCGGAAGTGGGCTTAGTCTTGATTCGCTTGACGCTGCTG | 12.5

Row | Sequence | binding signal (log fluorescence intensity)
64 | TGTCGGGTAAGGGAATGTAGATCACGTGAATGAAGAGTCTTGATTCGCTTGACGCTGCTG | 8.22
65 | TGTCGGGTAAGGGAATGTAGATCACGTTAATGAAAAGTCTTGATTCGCTTGACGCTGCTG | 8.29
66 | CACAATCTTTACAGTAATGTAGCACGCGTAACTCCTGTCTTGATTCGCTTGACGCTGCTG | 8.16
67 | GCTGCTGCGGGGCATACCCCACCGGATGTGACCCCGGTCTTGATTCGCTTGACGCTGCTG | 10.3
68 | CGGAAGTGTCGTAAACGTCGGCTATCCGGTTCTTCTGTCTTGATTCGCTTGACGCTGCTG | 8.79
69 | CACAAATTTTACAGTAATGTAGCACGCGTAACTCCTGTCTTGATTCGCTTGACGCTGCTG | 8.1
70 | TAAAGGGAAGACGTTTGTGGTAGTTCCGGGTATTAAGTCTTGATTCGCTTGACGCTGCTG | 8.3
71 | CAGCATAGGACTTCTTCCCTGAAGCAATTGATACCCGTCTTGATTCGCTTGACGCTGCTG | 8.3
72 | CGGAAGTGTCGGAAACGTCGGATATCCGGTTCTTCTGTCTTGATTCGCTTGACGCTGCTG | 12.8
73 | GAGTATAGGATCCCATCCAACACACGTGTTAAAATGGTCTTGATTCGCTTGACGCTGCTG | 8.2
74 | CTGGGACTTGACCCAACTCTGCCACGTGCGTCGTTTGTCTTGATTCGCTTGACGCTGCTG | 8.25
75 | CAGCATAGGACTTCTTCCCTGAACCAATTGATAACCGTCTTGATTCGCTTGACGCTGCTG | 8.33
76 | GCTGCTGCGGTGCATACCCCAACGGATGTGACCCCGGTCTTGATTCGCTTGACGCTGCTG | 8.26
77 | TCCGGCTACCACCTCCACCCACTTCAGGCCTTGTAGGTCTTGATTCGCTTGACGCTGCTG | 8.32
78 | CAGAATAGGACTTCTTCCCTGAAGCAATTGATAACCGTCTTGATTCGCTTGACGCTGCTG | 8.33
79 | CTGGGAATTGACCCAACTCTGCCACGTGGGTCGTTTGTCTTGATTCGCTTGACGCTGCTG | 8.19
80 | CTGTATAGGATCCCATCCAACACACGTGTTAAAATGGTCTTGATTCGCTTGACGCTGCTG | 8.4
81 | CAGCATAGGACTTGTTCCCTGAAGCAATTGATAACCGTCTTGATTCGCTTGACGCTGCTG | 8.34
